From patent publication US20240158442A1, “MULTIFUNCTIONAL POLYPEPTIDE AND APPLICATION THEREOF IN FIELD OF MEDICINES” (Wuhan Innerse Pharmaceutical Inc., priority 2021, published 2024)
Ends that are not written are not given here.

Assay: Dose-effect experiment, body weight of MCAO model animals
Conditions: for Lost Weight (D 0 body weight − D 2 body weight): 3 mg/kg i.v., model control 48.92 ± 5.78
Method: Measurement time: the body weight was measured at least twice during the accommodation, and each batch of rats were weighed once on the day before the surgery and on the day of dissection to calculate the amount of drug administered and the anesthetic applied; the body weight was measured twice a week after the surgery.
The effect of test substance on the weight of model animals: cerebral ischemia-reperfusion is an acute injury model, wherein the weight of experimental animals will drop dramatically after MCAO modeling. Thus, the weight of experimental animals is one of the most basic sensitive parameters to comprehensively reflect the health status of animals. In this experiment, the body weight of all the animals was monitored from first day after the surgery, and the results of animal's body weight change are shown in Table 11. There was no difference in the weight of the animals in each group before modeling.

YGRKKRRQRRRKLSSIESDV [Example S1, nerinetide]
Lost Weight (D 0 body weight − D 2 body weight): 48.22 ± 8.23 g
Lost Weight (D 0 body weight − D 2 body weight) (listed as Positive drug): 48.22 ± 8.23 g
influence on body weight (MCAO rats, 1 day after surgery, S1 3 mg/kg, S5 0.6-15 mg/kg i.v.): no significant influence on rat's body weight
